These are yes or no findings as the source states them, for the method shown. In cells and extracts the contact can be indirect. Some binding calls cover weakened binding; strength is not graded here. One block for each substance: values may come before it.
Legend:
[1] = biological target: FLAG-CHIP H260Q (HEK293) (UniProt Q9UNE7); experiment: co-IP; HEK293 cells cotransfected with FLAG-CHIP (WT, K30A or H260Q) and OCT4 expression vector for 40 h, then 20 uM MG132 for 8 h; immunoprecipitation from lysate
[2] = biological target: FLAG-CHIP K30A (HEK293) (UniProt Q9UNE7); experiment: as above
[3] = biological target: WT FLAG-CHIP (HEK293) (UniProt Q9UNE7); experiment: as above
[4] = biological target: carboxy terminus of HSP70-interacting protein (CHIP) in MDA-MB-231 cells (human (in MDA-MB-231 cells; endogenous or transfected not stated)) (UniProt Q9UNE7); experiment: co-IP; immunoprecipitation from MDA-MB-231 cell lysate; precipitating antibody not stated for this panel
[5] = biological target: CHIP in MCF7_OCT4KD cells (UniProt Q9UNE7); experiment: co-IP; MCF7_OCT4KD cells transfected with the indicated vectors for 40 h, then 20 uM MG132 for 8 h; immunoprecipitation from lysate

The chains behind the UniProt entries cited, without tags or fusion partners. Where a name states a change or a piece, a line headed by the entry shows the natural chain unless it says otherwise.
UniProt Q9UNE7: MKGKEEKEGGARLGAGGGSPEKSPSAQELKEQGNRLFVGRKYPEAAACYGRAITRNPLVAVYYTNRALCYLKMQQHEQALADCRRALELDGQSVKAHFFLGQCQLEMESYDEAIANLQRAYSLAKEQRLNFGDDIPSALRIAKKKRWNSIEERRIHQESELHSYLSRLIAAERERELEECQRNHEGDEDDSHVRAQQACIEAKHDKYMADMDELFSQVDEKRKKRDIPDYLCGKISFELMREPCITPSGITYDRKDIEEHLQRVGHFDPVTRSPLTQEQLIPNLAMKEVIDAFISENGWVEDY
UniProt Q01860: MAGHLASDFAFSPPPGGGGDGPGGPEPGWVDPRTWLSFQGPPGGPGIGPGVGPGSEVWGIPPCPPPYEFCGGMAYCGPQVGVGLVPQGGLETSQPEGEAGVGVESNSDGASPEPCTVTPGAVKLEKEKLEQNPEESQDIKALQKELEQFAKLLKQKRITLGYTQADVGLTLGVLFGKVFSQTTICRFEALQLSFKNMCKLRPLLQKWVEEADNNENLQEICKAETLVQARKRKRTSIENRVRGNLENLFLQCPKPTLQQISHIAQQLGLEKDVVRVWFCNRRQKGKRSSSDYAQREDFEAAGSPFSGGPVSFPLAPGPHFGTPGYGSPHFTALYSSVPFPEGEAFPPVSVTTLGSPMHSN

- binding [1]: binds
- binding [2]: no binding
- binding [3]: binds
Substance: OCT4 (HEK293, transfected) (from UniProt Q01860 1-360)

- binding [4]: binds
Substance: OCT4 in MDA-MB-231 cells (from UniProt Q01860 1-360)

- binding [5]: binds
Substance: OCT4_K284R (MCF7_OCT4KD, transfected) (from UniProt Q01860 1-360)

- binding [5]: binds
Substance: WT OCT4 (MCF7_OCT4KD, transfected) (from UniProt Q01860 1-360)
